Results taken from the supplement of paper PMC10681739.
± gives the standard deviation of the averaged measurements. In all, about 4,000 sequences were measured (“arbitrary fluorescence units”: median about 830, highest 2% from about 6,500 on). The list lacks most of the strong results.
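Note: Full-length recombinant human RUNX1 bound to double-stranded DNA microarray spots, detected with an Alexa488-labelled secondary antibody after the anti-RUNX1 primary, read as scanned spot fluorescence.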

Each sequence was assayed against RUNX1 (UniProt Q01196) (assay: RUNX1 binding intensity (PBM fluorescence), RUNX1 alone (arbitrary fluorescence units); higher = stronger binding). Details: RUNX1 concentration 2 nM; ETS1 concentration 0 nM.
Chain of UniProt Q01196 (Q01196 whole entry): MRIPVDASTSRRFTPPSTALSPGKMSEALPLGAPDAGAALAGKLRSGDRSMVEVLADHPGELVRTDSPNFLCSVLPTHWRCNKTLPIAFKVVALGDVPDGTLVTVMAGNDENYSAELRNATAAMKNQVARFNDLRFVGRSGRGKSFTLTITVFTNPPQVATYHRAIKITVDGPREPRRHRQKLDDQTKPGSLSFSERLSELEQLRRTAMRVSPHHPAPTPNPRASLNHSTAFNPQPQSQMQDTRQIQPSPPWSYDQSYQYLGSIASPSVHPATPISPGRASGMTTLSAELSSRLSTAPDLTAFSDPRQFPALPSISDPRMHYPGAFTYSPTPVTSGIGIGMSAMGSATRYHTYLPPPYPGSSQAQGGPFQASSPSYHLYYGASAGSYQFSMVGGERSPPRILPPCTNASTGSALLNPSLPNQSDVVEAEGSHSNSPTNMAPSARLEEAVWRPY
Method: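 gcPBM on 36-bp genomic-derived probes (partner site mutated) containing one RUNX1 site and no ETS1 site. Recombinant human RUNX1 (2 nM) was incubated alone or with ETS1 (25 nM) and detected by anti-RUNX1 antibody fluorescence. Values are medians over 4 replicate spots (not normalised). The probes sit in constant array flanks that are not printed.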
With GTAGCCGGGTGTTACGGAGCGCTGCGGGCAAAGCAG the RUNX1 binding intensity was 671. Work on CCCTTCGCTTGCGCTCCGCGTTCCCACAATGCAGTG yielded an RUNX1 binding intensity of 1030. TGCAGCCCCCACAGCCATCATCTTTCTGAGTCAACA showed an RUNX1 binding intensity of 846. Sequence TGGGCGCGCTGCGGGAGCTGGGCTTCACGTACATGA has an RUNX1 binding intensity of 653. CCACCGCCCCGCAGCTCACACCGTATGTGCGACAGA gave an RUNX1 binding intensity of 898. For GAGGTGCCCGTCAACCACCTGATCCGTCAGGGGCCC, the RUNX1 binding intensity was 692. With GGTGAGCAGCCGATAGCCTGGAGCAGCACCCACACC the RUNX1 binding intensity was 715. With GCAACCGCACTCCGAAAGCTCTGGGCCTGAAGAGTC the RUNX1 binding intensity was 943. GGCCTCCTTCGGAGGCTCCCCTCCACCCACAAGCAG gave an RUNX1 binding intensity of 736. With ATAGTCACCGTTCCAGCCCTCCTCCACCGCACTTCT the RUNX1 binding intensity was 1300. In the case of GCCCGCGGCTCCGTAAGCGGCTGCGGCCCCGACCGG, the RUNX1 binding intensity is reported as 684. CATTATTAACCTTCAGGCAAATCCCCACAGCCGCCA gave an RUNX1 binding intensity of 997. Work on TAGATGCAGAGAACCACAAACATTTACGTACGGCTA yielded an RUNX1 binding intensity of 1050. With AGGGTTTGTGGGACCTGGTGACTCACGGGATCTGGG the RUNX1 binding intensity was 703. TCATTGAGGTTTCTGAAGCACACAGCAAGTCAGAAA was tested, and the RUNX1 binding intensity was 797. TCGCCCACCTCCCCACCTCTCAAAAGACCACAGGCA gave an RUNX1 binding intensity of 1400. With TGCCTGGAATACTGAAGGCAGGTGGTTGGCTCTAGT the RUNX1 binding intensity was 771. ACCTGTAGGTGGAAGTCTGTGGCTTTATTTACACAG gave an RUNX1 binding intensity of 788 ± 52. Work on TCCCGGGGAGGAGGTGGCGAGAATGCGGGGGTGGGC yielded an RUNX1 binding intensity of 831. In the case of GCTCTGCATCTTGTGGGCTAAGGAATCAGGTCCCAC, the RUNX1 binding intensity is reported as 828. For CTGTGGGTTCGGCAGTAAACTCTGACCTCCTATTTA, the RUNX1 binding intensity was 892. For GCTTAAGGATGGGACAACTAGAGTGGGTTACTCTGC, the RUNX1 binding intensity was 730. TGCCTCTGAACCGCGCTCTCGCGAGTTGCCGTAGCC was tested, and the RUNX1 binding intensity was 879. TCACAAACCCACACGGCCCAGCCCCCAGTTCCATTC gave an RUNX1 binding intensity of 1390. In the case of AGACCCGGACCCGAACCTTGGCGCGGTGACGCTAGT, the RUNX1 binding intensity is reported as 699. TGAGCGCCTGAACAGCTCTCCCAGCAACCACCTCTC showed an RUNX1 binding intensity of 840. ACGACTGGAACGTGGACAACCAGTGGTTGTTCCTCC gave an RUNX1 binding intensity of 816. Sequence CTCCCTAGCCCGCGGTGAGCGGGGGAATCGGCACTC has an RUNX1 binding intensity of 875. GTTCACGTTCAGCTCTTAGTGCGCGGTGAGTTCCCC gave an RUNX1 binding intensity of 700. AGAGGCAATCACACTCTCACTGGGGTTCCCGCAGCT showed an RUNX1 binding intensity of 709. For CATTGCCTGATCTGACCTCTGGGGAGGCCACAGAGC, the RUNX1 binding intensity was 869. TGAGCCTTGGAATGGAATGATTCACCACAATACTGT showed an RUNX1 binding intensity of 733. GGCCTGCGGTCCGGGGCCGCTCGGCAGGCGCAAGCC gave an RUNX1 binding intensity of 1020. CAGAGAAACATGAAGAACAGTGGTTTCAACTGAAAT was tested, and the RUNX1 binding intensity was 755. Work on ACACCACTAACAACCACGGCCGCTTGCTGAACCTGT yielded an RUNX1 binding intensity of 970 ± 38.
